Measured values published in PubChem BioAssay AID1508642 (National Center for Advancing Translational Sciences (NCATS), 2021).
The whole screen tested about 43,000 compounds, of which about 200 (0.47%) were called active. Inconclusive results (about 12%) are left out. Calls come from the whole dose curve; as a rule, active = well fitted cell-killing curve with a large enough effect; inconclusive = small, poorly fitted or top-dose-only effect, or effect the other way; inactive = flat fitted curve, though single readings scatter. The list shows a part of the results.

Experiment: Cell viability qHTS assay in S16 Pmp22-F2sN cells; note: nearly all actives have a fitted effect of over 65% in size
Settings: S16 Pmp22-F2sN Schwann cells (luciferase reporters placed in the Pmp22 gene) viability, CellTiter-Glo, 24 h; series mostly up to 57.5 µM; activity change, negative = cytotoxicity: at the top concentration
Description: Assay Provider: Jim Inglese Ph.D. National Center for Advancing Translational Science, National Institutes of Health, Rockville, MD CMT is a heterogeneous group of neurological disorders that affect approximately 1 in 2,500 people. In particular, the most common form of CMT, CMT1A is genetically linked to the duplication of the PMP22 gene which leads to Schwann cell overexpression, thus manifesting itself as a typical case of dose-sensitive diseases. To identify small molecule compounds that can mediate the expression of PMP22 we developed a phenotypic assay screening strategy by utilizing genome editing techniques to construct Schwann cell lines containing novel reporter technology to monitor the transcriptional or translational regulation of PMP22. For high sensitivity we use a bioluminescent reporter system embedded in the 3' UTR of the PMP22 gene (S16(c9) Pmp22-F2sN) to identify compounds that inhibit gene expression. […] We can further discriminate the effect of all transcriptionally active molecules on PMP22 translation or stability with an assay that incorporates a short NLuc peptide (HiBiT) at the C-terminus of expressed PMP22 (S16(f8) PMP22-HiBiT) allowing alpha complementation and luminescence detection of membrane-associated PMP22 protein. These assays were screened against the NCATS Sytravon Library Collection. Miniaturization of these assays to 1536-well plate format for quantitative high throughput screening (qHTS) yielded rich data sets immediately from the qHTS assay (S16(c9) Pmp22-F2sN), when compared with data from a cell viability assay (Cell TiterGlo) to identify compounds that decreased the output signals through cellular toxicity to streamline the selection process of actives for subsequent characterization using the HiBiT assay (S16(f8) PMP22-HiBiT).
Cell viability assay in S16 Pmp22-F2sN cells PROTOCOL TABLE (format as described by Inglese J, Shamu CE and Guy RK. 2007) SEQUENCE No. (e.g., 1, 2, 3, etc.); […] (e.g., Cells, Incubation, Reagent, etc.); VALUE and DESCRIPTION. 1. Cells. Add 500-1,000 cells in 4 uL in growth media (DMEM High Glucose, No Phenol Red media + 10% heat-inactivated FBS + 1% Pen/Strep supplemented media) per well into Greiner 1536-well white/solid bottom high base, TC-treated plates. 2. Compounds. Library compounds and controls added at 23nL per well, transferred by Pin Tool. 3. Incubation. Incubate plates at 37C, 5% CO2, 95% RH for 24 h. 4. Reagent. Add 3uL CellTiter-Glo per well of Greiner 1536-well plates. 5. Incubation. Incubate plates at room temperature for 15 min., protect from light. 6. Detector. FLuc luminescence measured using CCD-based camera (Viewlux). NOTES (numbers refer to Sequence numbers above; values are from representative experiments) 6. Luminescence Read: Clear filter; Exposure = 1 sec, Gain = High, Speed = Slow, Binning = 2X REFERENCES: 1. Inglese J, Shamu CE and Guy RK, Reporting data from high throughput screening of small molecule libraries, Nature Chemical Biology, 2007, 3(8): 438-441. doi.org/10.1038/nchembio0807-438 2. Yasgar A, Shinn P, Jadhav A, Auld DS, Michael S, Zheng W, Austin CP, Inglese J and Simeonov A, Compound Management for Quantitative High-Throughput Screening. J. Assoc. Lab. Auto., 2008, 13: 79-89. doi: 10.1016/j.jala.2007.12.004
% is set by controls: 0 for no effect and ±100 for the full control effect.

| SMILES | activity change, negative = cytotoxicity |
| --- | --- |
| Cc1cccc(CC(=O)N2CC(=O)Nc3ccc(F)cc3C2c2ccccc2)c1 (stereo unspecified) | inactive: -0.527% |
| Cc1ccc(CNC(=O)CSc2c(C(C)C)cnc3c2c(=O)n(C)c(=O)n3C)cc1 | inactive: 2.59% |
| COc1cc(NC(=O)CCCc2nnc3n(C)c(=O)c4sccc4n23)cc(OC)c1OC | inactive: 14.4% |
| O=C(CSc1nc(Nc2ccc(F)c(F)c2)c2ccccc2n1)c1ccc(Cl)cc1 | inactive: 15.4% |
| Cc1cccc(-n2ncc(C(=O)NCc3ccc4c(c3)OCO4)c2C2CCN(C(=O)OC(C)(C)C)CC2)c1 | inactive: -0.323% |
| O=C(CSc1oc(-c2ccco2)nc1S(=O)(=O)c1ccc(Cl)cc1)Nc1ccc(F)cc1 | inactive: 1.19% |
| CCCCCCC1CCC(C(=O)NC(C(=O)O)C(C)C)CC1 (stereo unspecified) | inactive: 3.6% |
| COc1ccc(-c2nc3ccccc3n3c(-c4ccccc4)c4c(=O)n(C)c(=O)n(C)c4c23)cc1 | inactive: -0.566% |
| COc1ccc2c(Sc3ccc(Cl)cc3)c(C(=O)N3CCCCC3)[nH]c2c1 | inactive: -1% |
| Cc1ccc(N2C(=O)CSC23C(=O)N(CC(=O)Nc2ccccc2F)c2ccccc23)cc1C (stereo unspecified) | inactive: -18.9% |
| Cc1ccc(CNC(=O)c2ccc(CS(=O)(=O)c3ccccc3C)o2)cc1 | inactive: -0.956% |
| CCOC(=O)CSc1nc2cc3c(cc2c(=O)n1CCCCCC(=O)NCc1ccc(OC)cc1)OCO3 | inactive: 14.3% |
| CN(C)c1ccc(CNC(=O)c2ccc3nc(CCc4ccccc4)oc3c2)cc1 | inactive: 13.4% |
| CCOc1ccc(NC(=O)c2oc3ccccc3c2NC(=O)c2cc3ccccc3o2)cc1 | inactive: 9.78% |
| COc1ccccc1NC(=O)Cn1c(=O)n(-c2ccc(C)cc2)c(=O)c2c1cnn2C | inactive: 3.4% |
| Cc1ccc(/C=C/c2onc(C)c2S(=O)(=O)N2CCC(C(=O)N(CCC(C)C)Cc3ccco3)CC2)cc1 | inactive: -0.292% |
| COc1ccc(N2CCN(CCCNC(=O)c3ccc4nc(N5CCCCC5)sc4c3)CC2)cc1 | inactive: -0.682% |
| CCc1cccc(NC(=O)CCNS(=O)(=O)c2ccc3c(c2)CCN3C(C)=O)c1 | inactive: -16.4% |
| CC(C)(C)c1ccc(-c2nnc(-c3ccccc3NC(=O)c3ccc(F)cc3F)o2)cc1 | inactive: 0.949% |
| COc1ccc(-n2nc(C(=O)Nc3cccc(Cl)c3)c3c4ccccc4n(C)c3c2=O)cc1Cl | inactive: 9.23% |
| CCCSc1ncc(Cl)c(C(=O)N2CCN(c3ccc(OC)cc3)CC2)n1 | inactive: 15.1% |
| CN(C(=O)c1nn(C)c2c1CS(=O)(=O)c1ccccc1-2)c1cccc(Cl)c1 | inactive: 4.39% |
| Cc1ccc(N2C(=O)N(Cc3cccc(Cl)c3)c3ccccc3S2(=O)=O)cc1 | inactive: -19.5% |

| SMILES | activity change, negative = cytotoxicity |
| --- | --- |
| CCC1CN(C(=O)Nc2cc(Cl)ccc2C(=O)OC)c2ccccc2S1 (stereo unspecified) | inactive: 0.398% |
| COc1ccc(OC)c(NC(=O)COCc2cc(-c3ccc(F)cc3)on2)c1 | inactive: -3.75% |
| Cc1ccc(C)c(Cn2c(=O)n(CCCC(=O)NCc3ccc4c(c3)OCO4)c(=O)c3sccc32)c1 | inactive: -0.601% |
| CCOC(=O)c1sc(N2C(=O)c3oc4ccc(F)cc4c(=O)c3C2c2ccc(O)cc2)nc1C (stereo unspecified) | inactive: 3.24% |
| CCC(C)c1ccc(OCC(=O)Nc2ccc(-c3nc4ncccc4o3)cc2)cc1 (stereo unspecified) | inactive: 4.24% |
| CC(C)Oc1ccc(C(=O)N2CCCCC2CCN2CCCCC2)cc1 (stereo unspecified) | inactive: 9.69% |
| Cc1cc(F)ccc1NC(=O)c1c(C)oc2c1C1=NCCN1C=N2 | inactive: 1.72% |
| O=C(NCc1ccc(Cl)cc1Cl)c1cccc(N2CCCS2(=O)=O)c1 | inactive: 6.02% |
| COc1ccccc1-n1c(=O)n(C)c2c(C(N)=O)nc(-c3cc(OC)c(OC)c(OC)c3)nc21 | inactive: 9.42% |
| COc1cc2c(cc1NC(=O)C(C)Oc1ccccc1)oc1ccccc12 (stereo unspecified) | inactive: -16.3% |
| Cc1cc(C)c2c(N)c(C(=O)Nc3ccccc3C(F)(F)F)sc2n1 | inactive: -1.03% |
| CCc1ccccc1NC(=O)CSc1nc2c(c(=O)[nH]1)CN(Cc1ccccc1OC)CC2 | inactive: -22.3% |
| Cn1cnc(S(=O)(=O)N2CCCC(C(=O)Nc3ccc(OC(F)(F)F)cc3)C2)c1 (stereo unspecified) | inactive: 0.997% |
| CCc1ccc(C(=O)NC2=NC(c3ccccc3F)CC(=O)N2)cc1 (stereo unspecified) | inactive: 0.868% |
| CCOC(=O)c1c(NC(=O)c2ccc(C)c(C)c2)sc2c1CCCCC2 | inactive: 4.33% |
| CCC(=O)N1CCc2cc(S(=O)(=O)NC(C(=O)Nc3cc(OC)cc(OC)c3)C(C)C)ccc21 (stereo unspecified) | inactive: 1.58% |
| COCCCNC(=O)c1ccc2nc(CCc3ccccc3)oc2c1 | inactive: 3.75% |
| Cc1ccc(OCC(=O)Nc2ccc(-c3nc4ccccc4o3)cc2)c(C)c1 | inactive: 3.74% |
| O=C(Nc1ccccc1Br)N1CCC(CN2CCCC2)CC1 | inactive: 0.706% |
| Cc1c(Cl)ccc2sc(N3CCN(C(=O)CS(=O)(=O)c4ccccc4)CC3)nc12 | inactive: -6.51% |
| O=C(Cc1c(C(=O)O)[nH]c2ccccc12)Nc1cccc(C(F)(F)F)c1 | inactive: 5.83% |
| CCOc1ccc(OCC)c(NS(=O)(=O)c2ccc3c(c2)CCN3C(=O)C2CCC2)c1 | inactive: 9.07% |
| CCOc1ccc(CNC(=O)Cn2c(=O)c3cccn3c3ccccc32)cc1 | inactive: 2.65% |
